In the RNAGym collection of RNA variant scans (doi:10.1093/nar/gkz1192) one finds self-cleavage data, which are given here for 83 variants.

Read counts are not given, so values of variants with three or more changes are uncertain.

The labels stand for the following.
B1: CPEB3 Ribozyme (parent)
chain: UAACAGGGGGCCACAGCAGAAGCGUUCACGUCGCAGCCCCUGUCAGAUUCUGGUGAAUCUGCGAAUUCUGCUGUAUAUCUC

This series covers variants of B1. Nature of the series: self-cleavage, relative activity (ratio to wild type); higher = more cleavage; in vitro, sequencing. In short, it runs like this:
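For each CPEB3 ribozyme variant, relative activity is its cleaved/total read fraction divided by the unmutated ribozyme's. Barcoded error-prone PCR libraries were transcribed by T7 RNA polymerase (5 hours, 37°C) and held in DNase I for 15 min before an EDTA stop, with cleavage occurring throughout. Template-switching reverse transcription and Illumina sequencing were used to read the RNAs. A 5-read minimum applied, and results are the mean of three batches.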
Take G8U A28G A64G G70C: the self-cleavage stood at 0.1.

With G9U C12U A35G U72A, the self-cleavage is 0.06.

With G8U U41A U69A, the self-cleavage amounted to 0.15.

For G9C A15U A20U U54C, the self-cleavage is 0.2.

As to G9U C39A G46C U58A A77G, the self-cleavage was determined as 0.13.

In the case of G8C A13G A15G A28U U43C, the self-cleavage was 0.54.

For G9A U41C U43A A56U A75C U78C, the self-cleavage stood at 0.12.

Take G8U A35G U43A U80C: the self-cleavage amounted to 0.1.

As for G9U C50U A77G, the self-cleavage came to 0.21.

In the case of G9A A47G U60C U76A, the self-cleavage is 0.12.

With G9A U25A U43C, the self-cleavage was 0.27.

Regarding G8A U60A A64U U69C U78C, the self-cleavage is 0.05.

Regarding G9A A35G U41C A57G U58C A65U, the self-cleavage is 0.07.

Consider G9A C14U A20G U25C U74C, for which the self-cleavage stood at 0.78.

For G9A A15U A57G, the self-cleavage is 0.29.

As for G8U A64U U72C, the self-cleavage stood at 0.04.

Turning to G9U A20C A21C U43A A57G U78C, the self-cleavage was 0.07.

Take G9A C12U A13U U25C A45C A56G: the self-cleavage came out at 0.06.

With G9A A13U U72A A77G, the self-cleavage was 0.07.

In the case of G9A A21G U51A U69C, the self-cleavage came to 0.03.

For the variant G10A A15U A45G, the self-cleavage came out at 0.17.

Consider G9A C38U A64G, for which the self-cleavage turned out to be 0.65.

On to G9A U26C A28U U60A A75U A77U, for which the self-cleavage stood at 0.05.

As for G8U A13C A18G U25C, the self-cleavage is 0.17.

Regarding G10A A15G U48C U69A U78C, the self-cleavage stood at 0.2.

Regarding G9U A15G C27A G42A U51G, the self-cleavage amounted to 0.14.

For the variant G10A A18U A21G U41A U51A U67C U69C, the self-cleavage was 0.03.

In the case of G9A A13G A35U C81U, the self-cleavage worked out at 0.07.

As to G9A C12U A35C U43C U49C U54G A56U, the self-cleavage was 0.14.

In the case of G9A A35G U72A, the self-cleavage turned out to be 0.46.

In the case of G9C U31C U48C, the self-cleavage was 0.07.

Consider G10A A15G C23U A47G A64G U67C C79U, for which the self-cleavage is 0.02.

In the case of G9U A18G A21G U60C A65G U72A, the self-cleavage was determined as 0.04.

Take G9A U26C A45G A56U A77G: the self-cleavage was found to be 0.07.

Take G9U A18G C27U U72A: the self-cleavage is 0.06.

For the variant G9A A20G U41A A56G, the self-cleavage worked out at 0.06.

With G8U A13U U26C C32U U54A U60G U69A, the self-cleavage was 0.07.

For the variant G8C A18U A35U A65G U67C U74G, the self-cleavage worked out at 0.07.

For the variant G9A A15G C23U A35G G36A U54G U76G, the self-cleavage came out at 0.04.

On to G9U A35G A45G U66A, for which the self-cleavage worked out at 0.27.

Consider G8C A21G A28G C40G G63A U69C C81G, for which the self-cleavage turned out to be 0.04.

As to G8U A18G A56U A64G, the self-cleavage turned out to be 0.16.

With G9U C34U U66C U72A U78C, the self-cleavage turned out to be 0.04.

Regarding G8U U58C G61A, the self-cleavage turned out to be 0.09.

As to G8A U48C A56G U69C U72C G73U, the self-cleavage came out at 0.12.

For the variant G8U U31C U43G A57G, the self-cleavage amounted to 0.1.

For the variant G9U A13U A18U A64U, the self-cleavage came to 0.05.

Take G8U U25A U26C C27A A56G U78C: the self-cleavage turned out to be 0.1.

As to G10A A15U U49A U60C U80C, the self-cleavage was 0.06.

Take G8U C23U A64G G70C: the self-cleavage is 0.04.

On to G10A A15G A20G G33C U58A U67C U76C, for which the self-cleavage came to 0.02.

G9U U58C U78C: the self-cleavage was determined as 0.29.

In the case of G8U U54C U78C, the self-cleavage was determined as 0.35.

Regarding G9U U41G A56U U80A, the self-cleavage was 0.06.

For the variant G9A A13G C44A C62A G70A, the self-cleavage came to 0.17.

Turning to G8C A13C U26C U69A, the self-cleavage turned out to be 0.11.

As to G9A U25C A35G U43C U58A U72C, the self-cleavage came out at 0.06.

As for G9U U25G G42U, the self-cleavage worked out at 0.06.

Turning to G10A A18G A65G U80A, the self-cleavage came to 0.04.

Turning to G8C G52U A56U, the self-cleavage came out at 0.26.

Regarding G10A A18G A21G U69C U72C, the self-cleavage stood at 0.11.

For G8C A15G A77G, the self-cleavage stood at 0.33.

Turning to G9U A21G G52U U69C, the self-cleavage turned out to be 0.05.

As for G8U U51C A65C, the self-cleavage stood at 0.05.

Take G10A A13G C38U U58C: the self-cleavage was 0.09.

With G9U C12U A35G U41C U76C, the self-cleavage is 0.07.

On to G9A A15G A20G G53C U60C U80G, for which the self-cleavage came to 0.2.

In the case of G9A U41C U49C, the self-cleavage came out at 0.07.

Consider G10A A18U U31C U43A A45G U69A, for which the self-cleavage was determined as 0.03.

Take G9A U41C A45G U60C C71U: the self-cleavage was determined as 0.15.

As to G9C A18G C38A A47G, the self-cleavage came to 0.05.

As to G9A U26C A45U A56U U60G A77G U80C, the self-cleavage amounted to 0.11.

As to G9A U60A U74A U80A, the self-cleavage stood at 0.05.

Consider G9A U41C A64G, for which the self-cleavage turned out to be 0.17.

As to G9U U31C A35G, the self-cleavage was determined as 0.26.

As for G9C U26C U31A A47G U51A U80C, the self-cleavage came out at 0.04.

For the variant G8A U41C A45G U69A, the self-cleavage was 0.21.

G9A U25C G53A A56G: the self-cleavage was 0.17.

Take G9C A65G U67C: the self-cleavage came to 0.05.

On to G9A C40G U43C U66C U67C C71U U78C, for which the self-cleavage stood at 0.02.

On to G9U A35G A45G, for which the self-cleavage amounted to 0.09.

G9U G16A U25A C39U U78A: the self-cleavage came to 0.04.

With G9U U41A G63U, the self-cleavage was found to be 0.06.
